# Data: the BET-seq Pho4 binding data (Le et al. 2018)
# The other results are listed elsewhere or left out. The energies were worked out here from pooled read counts, against the library average; single values are noisy.
# Biological target: T1, Pho4 (S. cerevisiae) (UniProt P07270)
# T1 sequence: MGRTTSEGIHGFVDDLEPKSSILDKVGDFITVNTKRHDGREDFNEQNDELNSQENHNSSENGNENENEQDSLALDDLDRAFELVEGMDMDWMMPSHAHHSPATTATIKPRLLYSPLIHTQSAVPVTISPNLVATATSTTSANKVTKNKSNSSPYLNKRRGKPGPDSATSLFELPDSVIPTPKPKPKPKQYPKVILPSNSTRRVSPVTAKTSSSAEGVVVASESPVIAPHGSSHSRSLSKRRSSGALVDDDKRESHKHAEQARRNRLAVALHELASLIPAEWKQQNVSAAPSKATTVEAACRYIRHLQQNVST
# Experiment: relative binding free energy (BET-seq); higher = weaker binding
# Conditions: reference: library average
row,Sequence,relative binding free energy [kcal/mol]
1,GCAGTCACGTGTGAGG,0.09
2,TGTGTCACGTGGAGAC,0.17
3,CCTTTCACGTGAAGTT,0.58
4,AGGGGCACGTGGGCCG,-0.34
5,CGGTTCACGTGTCTTG,0.25
6,TATGCCACGTGTAAGT,0.02
7,ATAATCACGTGTCGTT,0.13
8,TTTGTCACGTGTTCAT,0.1
9,GGCTGCACGTGTTGTA,0.06
10,TGTAGCACGTGATTTA,0.05
11,AAGAACACGTGTAGGT,-0.02
12,GGGGTCACGTGATGAC,0.38
13,TTAATCACGTGTGTTT,0.22
14,TTGTTCACGTGCGAGA,0.32
15,GTAAACACGTGTAAGG,0.1
16,AAGGTCACGTGAATGT,0.26
17,TTGAGCACGTGAGGTG,0.17
18,CAGTGCACGTGTGTGC,0
19,GGTGACACGTGTGCAA,0.09
20,GAGTGCACGTGGTCAT,-0.03
21,AAGGTCACGTGTCGGT,0.18
22,TGGCGCACGTGTACGT,0
23,GCGATCACGTGTGTGT,0.17
24,TATTTCACGTGGCGCG,0.06
25,ATTTACACGTGATGTT,0.26

row,Sequence,relative binding free energy [kcal/mol]
1,TGATACACGTGTGATT,0.15
2,GGGAACACGTGTGCGA,0.11
3,GGTCTCACGTGCAGGG,0.12
4,TGTGTCACGTGGGCCA,-0.14
5,ATATACACGTGGGAAT,-0.03
6,AGAACCACGTGGGGGG,-0.09
7,AAGGTCACGTGGGCAG,-0.02
8,ATTGGCACGTGTTTCG,-0.14
9,AGTCGCACGTGTCTTG,0.12
10,CATGTCACGTGGATGT,0.16
11,GGGGCCACGTGGCGCG,-0.13
12,CGGCCCACGTGGGTGG,-0.21
13,ATTTGCACGTGATCGG,0.09
14,ATAGGCACGTGTCTAG,-0.1
15,TAATTCACGTGGGTTA,0.12
16,GGTTCCACGTGACGGG,0.11
17,CCGTTCACGTGAGGTG,0.3
18,GTGCACACGTGGGGTC,-0.13
19,GCATTCACGTGTAATT,0.36
20,ATTAGCACGTGGTTTA,-0.11
21,TTTCGCACGTGTGCTG,-0.1
22,GGTTTCACGTGATGCA,0.31
23,CGTAGCACGTGAGGTG,0.12
24,GAGCTCACGTGGGGTT,0.17
25,CGTAACACGTGAGTGT,0.1

row,Sequence,relative binding free energy [kcal/mol]
1,GTCTGCACGTGGTTTG,-0.04
2,TAGGTCACGTGAAACT,0.35
3,CTATGCACGTGTTATG,-0.1
4,AGAAACACGTGGGATG,-0.12
5,GGTCGCACGTGGCATG,-0.18
6,GTAGGCACGTGTTGTA,-0.11
7,GAGTTCACGTGTAGTT,0.3
8,AGGGCCACGTGATTTT,0.26
9,GGGGGCACGTGCGCTA,-0.16
10,AAATTCACGTGGTCTT,0.27
11,TTGGCCACGTGTACGG,0.06
12,GGAGTCACGTGCGGGT,0.05
13,TGTCACACGTGGGGCA,-0.13
14,TGTTCCACGTGGTGGG,0.06
15,ACGAACACGTGGGGTG,-0.23
16,ATTGTCACGTGGTGTC,-0.05
17,GAATTCACGTGGTGCG,0.23
18,GCATACACGTGAGGGT,0.24
19,GGATACACGTGATTTT,0.23
20,GACGTCACGTGGTTTG,0.14
21,TGCTACACGTGTTGTT,0.12
22,AAGGGCACGTGTCTTG,-0.17
23,TGGAGCACGTGGACAG,-0.02
